# Assay results taken from PubChem BioAssay AID1460 (National Center for Advancing Translational Sciences (NCATS), 2008).
# About 5,800 (2.1%) of roughly 270,000 compounds were called active. This list was built around the results that the source calls inconclusive (neither active nor inactive); the mix of calls is not that of the screen. Calls come from the whole dose curve; as a rule, active = well fitted inhibition curve with a large enough effect; inconclusive = small, poorly fitted or top-dose-only effect; inactive = flat fitted curve, though single readings scatter. Potencies beside an inconclusive call are fits to weak or partial responses and may not hold up.
# Target: Microtubule-associated protein tau (Homo sapiens) (UniProt P10636)
# UniProt P10636, sequence (P10636 whole entry, looked up): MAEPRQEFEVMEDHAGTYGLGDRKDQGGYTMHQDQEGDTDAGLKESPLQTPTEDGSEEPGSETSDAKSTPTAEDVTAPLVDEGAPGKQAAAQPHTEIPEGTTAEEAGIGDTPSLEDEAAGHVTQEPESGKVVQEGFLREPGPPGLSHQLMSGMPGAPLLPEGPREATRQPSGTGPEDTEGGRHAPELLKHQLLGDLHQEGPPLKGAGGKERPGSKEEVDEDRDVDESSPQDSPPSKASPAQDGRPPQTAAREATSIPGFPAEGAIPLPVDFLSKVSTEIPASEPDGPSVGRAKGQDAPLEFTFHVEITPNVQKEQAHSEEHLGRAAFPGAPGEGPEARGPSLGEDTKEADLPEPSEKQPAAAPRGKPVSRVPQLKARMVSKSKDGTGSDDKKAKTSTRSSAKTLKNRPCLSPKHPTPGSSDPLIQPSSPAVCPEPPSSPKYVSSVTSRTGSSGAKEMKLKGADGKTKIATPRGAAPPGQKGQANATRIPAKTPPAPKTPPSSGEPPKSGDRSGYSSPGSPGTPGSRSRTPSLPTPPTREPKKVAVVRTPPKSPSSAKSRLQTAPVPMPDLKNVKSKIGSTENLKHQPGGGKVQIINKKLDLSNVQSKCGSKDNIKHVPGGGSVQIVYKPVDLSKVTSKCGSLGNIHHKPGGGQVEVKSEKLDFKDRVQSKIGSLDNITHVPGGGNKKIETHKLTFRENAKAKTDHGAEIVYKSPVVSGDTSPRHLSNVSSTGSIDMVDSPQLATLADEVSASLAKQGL
# Assay: qHTS for Inhibitors of Tau Fibril Formation, Thioflavin T Binding; note: nearly all actives have a fitted effect of over 55% in size
# Conditions: recombinant tau K18 P301L (four-repeat tau fragment), heparin-induced fibrillization, ThT fluorescence; series mostly up to 57.4 µM
# Method in brief: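 Heparin-induced fibrillization of the P301L-mutant K18 repeat-domain fragment of human tau was followed by ThT binding in quantitative high-throughput format.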
# Potency is the fitted concentration of half-maximal effect; tags give direction and shape of the fitted curve.
row,Structure (SMILES),Potency
1,N#CC(C#N)C(c1ccsc1)c1c(-c2ccccc2)[nH][nH]c1=O (configuration not stated),"inconclusive: 22.4 µM [inhibitor, partial curve]"
2,CCOC(=O)c1cc(OC(=O)c2ccccc2C)n(-c2ccccc2)n1,"inconclusive: 25.1 µM [inhibitor, partial curve, poor fit]"
3,CCC1C/C(=C\c2cccnc2)C(=O)/C(=C/c2cccnc2)C1 (configuration not stated),active: 10 µM
4,COc1ccc(-c2nc(CS(=O)CC(=O)NCc3ccc(Cl)cc3)c(C)o2)cc1 (configuration not stated),"inconclusive: 22.4 µM [inhibitor, partial curve]"
5,Cc1cnc(SCCc2ccncc2)nc1C,"inconclusive: 25.1 µM [inhibitor, partial curve]"
6,Cc1cn2c(=O)cc(COC(=O)c3cccc(NC(=O)c4ccccc4C)c3)nc2s1,"inconclusive: 2.51 µM [inhibitor, partial curve]"
7,CN(C)C=Nc1nc2ccccc2nc1N1CCCC1,"inconclusive: 14.1 µM [inhibitor, single point]"
8,Cc1ccc(-n2cccc2/C=C2\C(=N)N3N=C(c4ccco4)SC3=NC2=O)cc1,"inconclusive: 14.1 µM [inhibitor, partial curve]"
9,CNC(=S)NNc1nc(N2CCOCC2)nc(N2CCOCC2)n1,inactive
10,COc1ccc(C2=N[C@H](c3ccccc3)CO2)cc1,"inconclusive: 28.2 µM [inhibitor, partial curve]"
11,COc1cc2c(cc1NC(=S)Nc1cccc3ccccc13)oc1ccccc12,"inconclusive: 6.31 µM [inhibitor, partial curve]"
12,CCOC(=O)c1c(C)oc2c1C(=O)c1ccccc1C2=O,"inconclusive: 3.55 µM [inhibitor, full curve]"
13,c1ccc2c(c1)OCC(c1nnc3sc(-c4ccc5c(c4)OCO5)nn13)O2 (configuration not stated),"inconclusive: 39.8 µM [inhibitor, single point]"
14,C=CCNC(=S)N/N=C/c1ccc(-c2ccc(Br)cc2)o1,"inconclusive: 8.91 µM [inhibitor, partial curve]"
15,Cc1ccc(-n2nc(CO)c(C(=O)NCc3cccnc3)n2)cc1,inactive
16,O=C(c1ccccc1)c1c[nH]cc1-c1ccccc1,inactive
17,CCOC(=O)c1ccc(N/C=C/C(=O)C(C)(C)C)cc1,"inconclusive: 2.82 µM [inhibitor, partial curve]"
18,COc1ccc(C(=O)/C=C/c2ccc3c(c2)OCCO3)cc1,"inconclusive: 3.55 µM [inhibitor, partial curve]"
19,Cc1cccc(N2CCN(C(=O)Cn3ncc4c5ccccc5n(C)c4c3=O)CC2)c1C,"inconclusive: 31.6 µM [inhibitor, partial curve]"
20,Cc1cccn2c(=O)c(C=O)c(Sc3ncccn3)nc12,"inconclusive: 14.1 µM [inhibitor, partial curve]"
21,C(=C\c1nnc(-c2cccs2)o1)/c1ccccc1,"inconclusive: 20 µM [inhibitor, partial curve]"

row,Structure (SMILES),Potency
1,COc1cc(OC)cc(-c2cc3nc(C)c(CCC(=O)NCc4ccc(Cl)cc4)c(C)n3n2)c1,"inconclusive: 17.8 µM [inhibitor, partial curve]"
2,COC(=O)c1cccc(NC(=O)/C=C/c2ccc([N+](=O)[O-])cc2)c1,"inconclusive: 3.55 µM [inhibitor, full curve]"
3,Cc1ccc(Cc2cnc(NC(=O)/C(C#N)=C/c3ccc(-c4cccc([N+](=O)[O-])c4)o3)s2)cc1,"inconclusive: 3.16 µM [inhibitor, full curve]"
4,COc1cc(/C=C(\C#N)c2ccccn2)ccc1OCc1ccc(Cl)cc1,"inconclusive: 15.8 µM [inhibitor, partial curve, poor fit]"
5,COc1ccc(OC)c2[nH]c(=O)c(CCNC(=O)c3cc4ccccc4o3)cc12,"inconclusive: 31.6 µM [inhibitor, partial curve]"
6,COc1ccc(/C(C)=N/NC(=O)c2sccc2-n2cccc2)cc1,"inconclusive: 6.31 µM [inhibitor, full curve]"
7,S=C(NC1CCCCC1)NC1CC2CCC(C1)N2Cc1ccccc1 (configuration not stated),inactive
8,O=C1/C(=C/c2ccncc2)SC(=S)N1C1CCS(=O)(=O)C1 (configuration not stated),"inconclusive: 20 µM [inhibitor, partial curve]"
9,O=C(C1CCN(S(=O)(=O)Cc2ccccc2)CC1)N1CCN(c2ccccc2)CC1,inactive
10,CCCSc1nnc2nc3c(nn12)c1ccccc1n3C,"inconclusive: 14.1 µM [inhibitor, partial curve]"
11,NC(=O)c1nc(Nc2ccccc2)sc1NC(=O)c1ccccc1Br,"inconclusive: 1.78 µM [inhibitor, partial curve]"
12,COc1ccc(/C=N/NC(=O)c2ccc(-c3ccccc3)cc2)cc1O,"inconclusive: 0.562 µM [inhibitor, full curve, poor fit]"
13,Cc1cccc(OCc2nnc(SCC(=O)c3ccccc3)o2)c1,"inconclusive: 7.94 µM [inhibitor, partial curve]"
14,O=C(Nc1ncc(Cc2ccc(C(F)(F)F)cc2)s1)c1ccc(-c2cccc([N+](=O)[O-])c2)o1,"inconclusive: 3.55 µM [inhibitor, full curve, poor fit]"
15,Cc1ccc(C(CC(=O)NCc2ccco2)c2ccc(OC(C)C)cc2)cc1 (configuration not stated),"inconclusive: 20 µM [inhibitor, single point]"
16,Cc1ccc(C(=O)N2CCN(c3ccc(NC(=O)c4ccc(Br)o4)cc3)CC2)cc1,"inconclusive: 14.1 µM [inhibitor, partial curve]"
17,CCOC(=O)CSc1nnc(CNc2nc(-c3ccccc3)cs2)n1C,"inconclusive: 28.2 µM [inhibitor, single point]"
18,CCCCc1c(C)nc2c(-c3ccc(OC)cc3)c(C)[nH]n2c1=O,inactive
19,Cc1ccc(C(=O)C2=C(O)C(=O)N(CCCN3CCOCC3)C23C(=O)N(C)c2ccccc23)o1 (configuration not stated),inactive
20,COc1ccc(/C=N/N=C/c2ccc(OC)c(O)c2)cc1O,"inconclusive: 7.94 µM [inhibitor, partial curve]"
21,Cc1cccc(-c2ccc(-c3cc(=O)oc4cc(C)cc(C)c34)cc2)c1,"inconclusive: 39.8 µM [inhibitor, partial curve]"
